Test results reported in PubChem BioAssay AID686978 (National Center for Advancing Translational Sciences (NCATS), 2013).
Values joined by “and” are separate entries in the source; they are usually repeats but may differ in a detail not shown here. Equal entries are not always repeated. Hit rate of the full screen: of about 420,000 compounds, about 64,000 (15%) were called active. Inconclusive means that the source gave no clear call. Such entries were picked first, then a sample of the others. The call rests on the fitted dose curve; in most records, active means well fitted inhibition curve with a large enough effect; inconclusive means small, poorly fitted or top-dose-only effect; inactive means flat fitted curve, though single readings scatter. A potency beside an inconclusive call is a rough fit, not a confirmed value.

assay: qHTS for Inhibitors of human tyrosyl-DNA phosphodiesterase 1 (TDP1): qHTS in cells in absence of CPT; conditions: DT40 Tdp1-/- hTDP1 cells, no CPT, ATP luminescence, 48 h; activity change, negative = growth inhibition: at 46.2 µM (top of the series) unless noted; further: nearly all actives have a fitted effect of over 55% in size
How it was run: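 Cells were dispensed at 400 per well, compounds added by pin tool, plates incubated ≥48 hr at 37 °C, then CellTiter-Glo added for 30 min at room temperature before luminescence reading. Line: DT40 Tdp1-/- complemented with hTDP1; camptothecin omitted.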
On the % scale 0 is the no-effect control and ±100 the full control effect; potency means the concentration at half of the fitted maximal effect; tags describe the fitted curve by direction and shape.

SMILES | Potency | activity change, negative = growth inhibition
CC(=O)N(O)c1ccc(/C=C2\C=Cc3ccccc32)cc1 | active: 3.16 µM | –
CCOc1cccc(C2c3c(oc4ccc(F)cc4c3=O)C(=O)N2CCc2ccc(OC)cc2)c1 (stereo not drawn) | inconclusive: 3.66 µM [inhibitor, partial curve] | –
O=S1(=O)C=CC(Sc2nc3ccccc3[nH]2)C1 (stereo not drawn) | active: 20.6 µM | –
COc1ccc(S(=O)(=O)N(CC(=O)NCc2ccco2)c2ccc(F)cc2)cc1 | inactive | –
CCCNC(=O)C1(C)CCN(C(=O)c2cc(C)n(C(C)(C)C)n2)C1 (stereo not drawn) | inactive | –
Cc1ccc(CN(C(=O)Nc2cccc(Cl)c2)c2ccccn2)cc1 | active: 16.4 µM | –
CCNC(=O)Cn1c(-c2cccs2)cc2ccccc21 | inconclusive: 18.4 µM [inhibitor, single point] | –
COCCn1c(SCC(=O)Nc2cc(C)on2)nc2ccccc2c1=O | inconclusive: 18.4 µM [inhibitor, single point] | –
O=C(CSc1ccccc1)N1CCN(c2ccccn2)CC1 | inconclusive: 29.1 µM [inhibitor, single point] | –
O=C(N/N=C/c1cc2c(cc1Br)OCO2)c1cc2ccccc2o1 | inconclusive: 16.4 µM [inhibitor, single point] | –
Cc1ccc(C(=O)Nc2c(C#N)c(C)c(C)n2Cc2ccccc2)cc1 | inconclusive: 10.3 µM [inhibitor, partial curve] | –
COc1ccc(Nc2cc(C(=O)NC3CCCC3)c3ccccc3n2)c(OC)c1 | inconclusive: 6.51 µM [inhibitor, full curve, poor fit] and inconclusive: 2.06 µM [inhibitor, full curve] | –
CCC(=O)Nc1nc2nc(-c3ccccc3)cc(=O)n2[nH]1 | inactive | –
Cc1c(C(=O)NCC2COc3ccccc3O2)oc2ccc(S(=O)(=O)N3CC(C)CC(C)C3)cc12 (stereo not drawn) | active: 12.6 µM | –
CC1Nc2ncnc(N3CCOCC3)c2N(Cc2ccc(Cl)cc2)C1=O (stereo not drawn) | inconclusive: 29.1 µM [inhibitor, single point] | –
CCOC(=O)c1cc(C)sc1NC(=O)CSC1=NCCS1 | inactive | –
Cc1cccc(C2CC(c3ccccc3)=NN2c2ccc(S(N)(=O)=O)cc2)c1 (stereo not drawn) | inconclusive: 29.1 µM [inhibitor, single point] | –
CC(CNC(=O)c1ccc2c(c1)OCO2)c1ccc([N+](=O)[O-])cc1 (stereo not drawn) | – | inconclusive: -36.7% [inhibitor]
CC(C)CC1c2[nH]c3ccccc3c2CCN1C(=O)CCC(=O)N(C)C (stereo not drawn) | inconclusive: 18.4 µM [inhibitor, single point] | –
CCOC(=O)C1CCCN(C(=O)C(C)(C)Oc2ccc(Cl)cc2)C1 (stereo not drawn) | inconclusive: 20.6 µM [inhibitor, single point] | –
Cc1ccn(CC(=O)N/N=C/c2cc([N+](=O)[O-])ccc2O)n1 | inconclusive: 20.6 µM [inhibitor, single point] | –
CC1CCCC(C)N1NC(=S)Nc1ccc(OC(F)F)cc1 (stereo not drawn) | inconclusive: 29.1 µM [inhibitor, single point] | –
CCN(CC)C1=CC2=CC(=C(C#N)C#N)CCC2CC1 (stereo not drawn) | – | inconclusive: -37.6% [inhibitor]

SMILES | Potency | activity change, negative = growth inhibition
Nc1nc(NCCCN2CCOCC2)nc(Nc2cccc(Cl)c2)c1[N+](=O)[O-] | inconclusive: 20.6 µM [inhibitor, single point] | –
COc1ccc(-c2[nH]c(-c3cc(OC)c4c(c3)OCO4)nc2-c2ccccc2)cc1 | inconclusive: 29.1 µM [inhibitor, single point] | –
Cc1oc(C)c2c(=O)cc(-c3ccc4c(c3)OCO4)cc(OC(=O)c3ccccc3Br)c12 | inconclusive: 29.1 µM [inhibitor, single point] | –
COc1cc2c(C(=O)NCc3ccc4c(c3)OCO4)cn(CC(C)C)c(=O)c2cc1OC | inactive | –
CCCn1c(-c2ccc(C(=O)OC)cc2)nc2c1c(=O)[nH]c(=O)n2Cc1ccccc1 | inactive | –
COc1cccc(/C=C/C(=O)Nc2ccc(C(=O)Nc3cccc(S(N)(=O)=O)c3)cc2)c1OC | inconclusive: 23.1 µM [inhibitor, partial curve, poor fit] | –
Cc1ccc(C(C)C)c(OCCCN2C(=O)NC(C)(C)C2=O)c1 | inactive | –
COc1ccc(NS(=O)(=O)c2ccc(NC(=O)Cc3cccs3)cc2)cc1 | active: 14.6 µM | –
O=C(Cc1ccc([N+](=O)[O-])cc1)N1CCN(c2ccc([N+](=O)[O-])cc2)CC1 | active: 7.31 µM | –
COc1ccc(CN2C[C@@H](CO)O[C@@H](n3cnc4c(NC5CCC5)ncnc43)C2)cc1 | inconclusive: 13 µM [inhibitor, partial curve] | –
O=C(COc1ccc2cc(Br)ccc2c1Br)N1CCOCC1 | inconclusive: 29.1 µM [inhibitor, single point] | –
CNC(=O)c1cccnc1Nc1cccc(C(F)(F)F)c1 | inconclusive: 29.1 µM [inhibitor, single point] | –
CC(C)NC(=O)CC1C(=O)NCCN1CC(c1ccccc1)c1ccccc1 (stereo not drawn) | inconclusive: 20.6 µM [inhibitor, single point] | –
COc1ccc(Cn2nnnc2C(C(C)C)N2CCc3ccccc32)cc1 (stereo not drawn) | inconclusive: 29.1 µM [inhibitor, single point] | –
COC(=O)C1=C(C)N(Cc2ccco2)C(=O)C1 | inactive | –
O=C(CCc1ccccc1F)N1CCN(c2ccc(C(F)(F)F)cn2)CC1 | inactive | –
Cc1ccc(Cn2c(-c3ccccc3)nc3ccccc32)cc1 | inconclusive: 29.1 µM [inhibitor, single point] | –
Cc1cccc(C2c3[nH]c4ccccc4c3CCN2Cc2cccn2-c2ncccn2)c1 (stereo not drawn) | active: 23.1 µM | –
COCCN=c1scc(-c2ccc3c(c2)NC(=O)CO3)n1/N=C(\C)c1ccc(O)cc1 | inconclusive: 29.1 µM [inhibitor, single point] | –
C[C@H](CO)N1C[C@H](C)[C@@H](CN(C)S(=O)(=O)c2cn(C)cn2)Oc2ccc(NC(=O)Nc3ccccc3)cc2C1=O | inactive | –
CC(=O)c1c(C)[nH]c(C(=O)OCC(=O)Nc2ccc3c(c2)OCCO3)c1C | active: 20.6 µM | –
Cc1ccc(C(=O)Nc2cccc(S(=O)(=O)N3CCCCC3)c2)cc1S(=O)(=O)N1CCOCC1 | inconclusive: 20.6 µM [inhibitor, partial curve] | –
Cc1ccc(C(=O)NCC(=O)OCC(=O)c2cccc3ccccc23)cc1 | inactive | –

SMILES | Potency | activity change, negative = growth inhibition
N#Cc1c(NC(=O)Cn2cnc3ccccc3c2=O)oc(-c2ccccc2)c1-c1ccccc1 | inactive | –
CCCCNC(=O)c1cc(Sc2ccc(OCC)cc2)nc2ccccc12 | inconclusive: 3.26 µM [inhibitor, full curve, poor fit] | –
CCn1ccc2cc(S(=O)(=O)N3CCC(C(=O)NCc4cccc(C)c4)CC3)ccc21 | inconclusive: 32.6 µM [inhibitor, single point] | –
Cc1ccc(C)c(Cn2c(=O)n(CCCCC(=O)NCc3ccccc3Cl)c(=O)c3ccccc32)c1 | active: 7.31 µM | –
COc1cccc(-c2cc(N)nn2C(=O)Nc2ccc(Cl)cc2)c1 | inconclusive: 25.9 µM [inhibitor, single point] | –
COc1ccc(CCN(C)S(=O)(=O)c2ccc(Cl)nc2)cc1OC | inconclusive: 29.1 µM [inhibitor, single point] | –
Cc1c(N=Cc2c(O)n(Cc3ccco3)c(=O)c3ccccc23)c(=O)n(-c2ccccc2)n1C | inconclusive: 23.1 µM [inhibitor, single point] | –
CCOC(=O)C1CCN(Cc2nc3ccccc3c(=O)n2-c2ccc(F)cc2)CC1 | inconclusive: 18.4 µM [inhibitor, partial curve] | –
Cc1ccc2c(C)cc[n+](CCCS(=O)(=O)[O-])c2c1 | inactive | –
OCC1(Cc2ccccc2)CCCN(Cc2ccc(-c3ccco3)cc2)C1 (stereo not drawn) | active: 23.1 µM | –
[N-]=[N+]=N[C@@H](CCN1CC[C@H](NC(=O)OCc2ccccc2)CCC1=O)c1ccccc1 | inconclusive: 22.4 µM [inhibitor, single point] and inconclusive: 29.1 µM [inhibitor, single point] | –
O=c1[nH]cnc2scc(-c3ccc(F)cc3)c12 | inconclusive: 16.4 µM [inhibitor, single point] | –
Cc1ccc(-c2c(C(=O)Nc3ccc(F)c(F)c3)oc(=O)c3ccccc23)cc1 | inconclusive: 20.6 µM [inhibitor, single point] | –
Cc1ccc(-c2nnc(SC(C)C(=O)NCC3CCCO3)nc2-c2ccc(C)cc2)cc1 (stereo not drawn) | inconclusive: 16.4 µM [inhibitor, single point] | –
Cn1nc(C(=O)Nc2cccc(S(=O)(=O)N3CCCCC3)c2)c2ccccc2c1=O | inconclusive: 20.6 µM [inhibitor, single point] | –
CCCc1nnc(NC(=O)CCC(=O)NC2CC2)s1 | inactive | –
COc1ccc(/C=C/C(=O)C2(O)CCCCC2)cc1 | inconclusive: 29.1 µM [inhibitor, single point] | –
Cc1ccc(S(=O)(=O)N(CCCc2c(C)nc(N)[nH]c2=O)Cc2ccc([N+](=O)[O-])cc2)cc1 | inconclusive: 29.1 µM [inhibitor, single point] | –
COc1ccccc1C(=O)NNC(=O)c1ccccc1Br | inactive | –
Cc1ccc(C(C)C)c2c1C(c1ccc3c(c1)OCO3)CC(=O)O2 (stereo not drawn) | inconclusive: 23.1 µM [inhibitor, single point] | –
O=C(CN1C(=O)C2CCCCN2c2ccc(C(=O)N3CCCC3)cc21)NCc1cccc(Cl)c1 (stereo not drawn) | active: 5.8 µM | –
CN(C)C(=O)c1cccn(Cc2cccc(C(F)(F)F)c2)c1=O | inactive | –
